# Data as given in the supplement of paper PMC11417369.
# ± gives the standard deviation of the averaged measurements. The list shows a part of the results.
# System: PfAP2-EXP AP2 domain (GST-tagged)
# Assay: gcPBM binding intensity (ln(normalized median fluorescence intensity)); higher = stronger DNA binding
# In short: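 Probes on an Agilent 4 × 180k array were primer-extended, double-stranded and 36 bp long, taken from intergenic genomic regions, with negative controls added. GST-tagged P. falciparum DNA-binding domains from E. coli, about 25 μg on average, were applied to the array for 1 h in 1× PBS containing 1% milk, 0.2 mg/ml BSA, 0.5% salmon testes DNA and 0.03% Triton X-100. Binding intensity, obtained after Alexa488 anti-GST antibody detection and a 488 nm scan, is the highest Masliner-normalised natural-log median intensity across replicate spots of either probe orientation.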
row,Sequence,gcPBM binding intensity (ln)
1,TTTTAAATACTTTATTGTACATTATATATATATATA [XGTACX_site7021],10 ± 0.2
2,TAAGTATATATATTTACACACATTTGTTTTTTTTTA [CACACA_site3784],8.43 ± 0.38
3,TAGTTTTTTATATATTGTACAAATGATATATTATAT [XGTACX_site1002],8.54 ± 0.28
4,TTTTGTTATTTTTGTATGCACTACATATTATTATAT,9.04 ± 0.17
5,TATTTTTAAACAAAACTGTATTTATTTTTTAAAATT [CACACA_negctrl_site1449],8.11 ± 0.35
6,AAACTTTTTTTAAAAACACACATATAGATTTATATA [CACACA_site7842],8.32 ± 0.42
7,ATATATATATATAATTGTACATTTTTATGTTTTATA [XGTACX_site4560],9.88 ± 0.39
8,GAAATTAAAAAATTTATGCACACTTTAAAAAAAAAA [CACACA_site3769],8.29 ± 0.32
9,TTCATTAAAATTATTACACACAGTTCTTCAACCAAA [CACACA_site3504],8.36 ± 0.41
10,ATATGTAGTTTTTATTGTACGTGTAGAAGAAATAAT [XGTACX_site6608],9.03 ± 0.41
11,TTTTAAACAGGACACACACACATATAGATTTATATA [CACACA_site6560],8.69 ± 0.4
12,AATGATTTTCAATCGAAATGAAACTTAGAAGATATA [CACACA_negctrl_site1475],8.48 ± 0.3
13,TATAACCATATATACACACACATATAAATATAAATA [CACACA_site7089],8.56 ± 0.48
14,TATATTTTAATTTGAAGTACTAATATTTATTTATAT [XGTACX_site7458],8.18 ± 0.28
15,ATATATATATATTTCGTGCACTGATAATATTATTTT,9.86 ± 0.085
16,AAGGTGGAAACAATTACACACACACTAAAAAAAAAA [CACACA_site7493],8.72 ± 0.5
17,ATGAAAAAAAATAAAAAATATATATATATATATATA [CACACA_negctrl_site236],10.1 ± 0.34
18,GAACGAAATAAGTGTGTGCACATGTAACCACAAATC [GTGCAC_site9829],9.23 ± 0.31
19,AATTAATATATAAATAATAAAAAAAAATATATAAAC [XGTACX_negctrl_site280],8.74 ± 0.4
20,CAATATTTTCATAGATGTACTTTGGACTTATTATAT [XGTACX_site4849],8.34 ± 0.38
21,TAAATAAAAGATACGAGTACGTATGATGTTAACCTC [XGTACX_site8840],8.53 ± 0.4
22,GTATATAGTATGTAGAGTACTAATTTCCATATGTTC [XGTACX_site7816],8.53 ± 0.31
23,ATTTATATATAGGTGTGTCCACAAATAGTATGTAAA [XGTACX_site2916],8.88 ± 0.35

row,Sequence,gcPBM binding intensity (ln)
1,TTTAAAATAACCAAAAACAAAAAGAAACACAAATGT [GTGCAC_negctrl_site705],8.77 ± 0.41
2,AAAAAAAAAATTTACTGTACACATTTGGGATACTCA [XGTACX_site5191],8.29 ± 0.25
3,TTTCAAATGGAATGTGTGCACATAAATGTAAATAAA,8.97 ± 0.31
4,GATCAAATAGAAAATACATGCAATGTGTGAAATAAC [TGCATGCA_site835],9.59 ± 0.18
5,TATAAGTTGATATATACACACATATATAAATATGTA [CACACA_site7526],8.24 ± 0.41
6,TATTTATAAAAATATACACACATACAAATATGCATA [CACACA_site4555],8.4 ± 0.27
7,CTTATTTAATGTATCACACACGAGAATAAAAAATAA [CACACA_site3020],8.58 ± 0.42
8,ATGGTTTTCAGAAAAACATGCATACAATAATAAAAA [TGCATGCA_site815],9.08 ± 0.41
9,AATAAAATGCAATACATTTTGTTATATAATGTTGTT [CACACA_negctrl_site1525],8.26 ± 0.42
10,CACAATGTAGTGTATAAATACAATAAAAGGTTGTAT [CACACA_negctrl_site700],8.54 ± 0.38
11,ATTTTTTTTATTATTACACACATATAATAAAAAAAT [CACACA_site1802],8.39 ± 0.67
12,ATTTTTTTTTTCTTTTTTTTTTGTTTTTCTCCTTTT [CACACA_negctrl_site1182],8.37 ± 0.59
13,TAAAGTGTAAAATTCACACACATATATATATATATA [CACACA_site4883],10.1 ± 0.36
14,ATATTGTAAGTAAACACACACACATATATCTGTATA [CACACA_site4541],8.48 ± 0.51
15,GTATAATTTATTGAACGTACACATATATATATGTAT [XGTACX_site1395],8.61 ± 0.26
16,TCTTGTCTACCTTGTATTTAATATTTACATATATAA [TGCATGCA_negctrl_site320],8.95 ± 0.4
17,TATTTCTTATTACATACACACATATACATAGATGAC [CACACA_site5729],8.69 ± 0.45
18,TTCTTGTATATATTTTGTACATATATACCATTTTAG [XGTACX_site2409],8.88 ± 0.38
19,TATATGTTTTTATGTACACACTTTTAACCTAAGAAA [CACACA_site4769],8.8 ± 0.092
20,TATTTGTAAAAATTGTGTACTTAGAAAATTCCAAAA [XGTACX_site6007],8.1 ± 0.099
21,ATCATTCCACTTTTCACACATATCTCTATTTCTATC [CACACA_site4723],9.14 ± 0.52
22,TGGAGGTCAGTTCACAGTACCCAGTAACTCTACGGA [XGTACX_site2549],8.46 ± 0.47
23,AAAAAAAATAAAATAATAAAAATTATGAATATATAT [CACACA_negctrl_site280],8.37 ± 0.29

row,Sequence,gcPBM binding intensity (ln)
1,AAATGTATAGGAATAATAATAAAAAAAAAAAAAAAT [CACACA_negctrl_site1793],8.39 ± 0.46
2,ATAGGTAATAATAATACACACGGTGAAATATAGATG [CACACA_site9336],8.88 ± 0.47
3,CAGTTTACTAATATTGCACACGAATATGAAAAAGAG [CACACA_site8941],9.04 ± 0.15
4,TTTTTCACACTTCAAAAGTGTCAACCTTCTATTCTC [TGCATGCA_negctrl_site489],8.65 ± 0.42
5,TTTTTTTTTCAAGAGGTGCGTGTATTTTAACAAAAA,8.59
6,AAAAAAAATTATGAAGTGCATTAGTGAATTTGATTG,8.82 ± 0.18
7,TTATCATTTGCCATTGTGCACTTATATGCTCACATT,9.23 ± 0.29
8,TTGTCTACAAAAATGTGCTTCTAATCATACGACTTG [CACACA_negctrl_site46],8.24 ± 0.38
9,TACATATATTATTGCACACATATAAAATACCCCCAA [CACACA_site3895],9.55 ± 0.52
10,GTAAAATTTACATAGAGTACTTATATTTTTTTCTGC [XGTACX_site3414],8.35 ± 0.42
11,CACAAATATACAAATACACACAAATATACAAATACA [CACACA_site2385],8.7 ± 0.41
12,ACATATTAAATATGAGTGCAATATATATATATATAA,8.8 ± 0.057
13,TATTATATCTTTTCAAGTACACATAACATACTTATT [XGTACX_site1081],8.56 ± 0.38
14,TATAATTATATAAATTGTACATAAAAAGTTTTTACT [XGTACX_site3621],8.4 ± 0.28
15,CAATATATTATATGGGTGCAAACCACATATAAATAA,8.59 ± 0.099
16,TTAGGTATATATAAACGTACTCACAATATCATATAA [XGTACX_site8743],8.61 ± 0.42
17,AAATGTAATAATAAATGTACAAACATATATATGTAT [XGTACX_site8718],8.78 ± 0.57
18,TATATATACTTTTATGTACACACCTATAATATGGGT [CACACA_site1759],8.6 ± 0.33
19,ATAAATAAATAAAAAAGTACATTTCCACTTTTAACA [XGTACX_site81],8.21 ± 0.3
20,TGCACCCACCAACACACACACAACTAAAAAATAATG [CACACA_site2566],8.69 ± 0.43
21,AAGTTTAAAATCTTTGCACACATATAAATAAATATA [CACACA_site2554],8.65 ± 0.56
22,TTAAATGTAATATAATGTACGGATATTTACCATAAA [XGTACX_site1472],8.43 ± 0.37
23,TTGTAATAAATAAAAGTGCATATATGGTTCCACTAT [GTGCAC_site9944],8.37 ± 0.057

row,Sequence,gcPBM binding intensity (ln)
1,AAGTATGTATCACAAAGTACTTAAGCATATATTTAA [XGTACX_site4121],8.63 ± 0.42
2,TAAATATATTGGAGAGGTACACTTTTGGCATTGAAA [XGTACX_site8447],8.63 ± 0.42
3,TACAAATATGGACACACACACATATATATATATATA [CACACA_site4488],10 ± 0.53
4,TTATTTTTTTATTCATGTACACAAGAACATTTCATT [XGTACX_site5744],8.61 ± 0.28
5,GTATAATAGAAACACACACACACACCCAAAAAAAAA [CACACA_site2010],8.62 ± 0.52
6,GTATATATAATGTGCCGTACATTTATATATTCAATA [XGTACX_site1051],8.48 ± 0.25
7,ATTCTACGCACGCGCACACACAACAAAAAAAAAAAA [CACACA_site3538],8.4 ± 0.36
8,GTGATGGTACAATATACACACTTAAAAAAAAAAAAT [CACACA_site5360],8.47 ± 0.6
9,TATATACATATATATTGTACTTATTTTTATAATGTC [XGTACX_site3453],8.46 ± 0.3
10,CATGTGTGATAATGATGTACTATATTAAGCTAGTCC [XGTACX_site2690],8.33 ± 0.3
11,TTAAGGCATCAACATAGTACAATTTTTCTATAATAA [XGTACX_site1114],8.14 ± 0.35
12,ATTTAATACAAATACACACACAAATAAATACAGATA [CACACA_site5956],8.86 ± 0.38
13,TTTATAATTCTTACAACACACAATGTACTTTTATAT [CACACA_site8340],8.63 ± 0.37
14,TTTATTTCCTTTTTGTGTACATATATATGTAATTCA [XGTACX_site1718],8.91 ± 0.44
15,TATAAATAAATAGATACACACATATTTATAAATACA [CACACA_site6219],8.47 ± 0.48
16,ATAAAAGATATGTATATGTATATGTATATATATATA [TGCATGCA_negctrl_site214],9.8 ± 0.33
17,TTACGCTGCTATATAGTGCACATAATATATGACCTG,8.92 ± 0.057
18,GCTTAAGGTAAATATAAAATATAGTGTATACTTTAG [XGTACX_negctrl_site585],8.25 ± 0.4
19,TTTTATTTATTATTATGTACACACTATATTAAAACA [XGTACX_site1265],8.57 ± 0.27
20,TGAATAATCAATAGTACACACATATAAATATAAATA [CACACA_site7345],8.65 ± 0.28
21,ACTTAGGAAATAAAACGTACATTAAATATATACATA [XGTACX_site2990],8.47 ± 0.31
